Assay results: the supplement of paper PMC11417369
Some of the results follow.

What follows are sequences tested on PfHDP1 homeodomain (GST-tagged) (assay: gcPBM binding intensity (ln(normalized median fluorescence intensity)); higher = stronger DNA binding).
Outline: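 Binding intensity values are the highest Masliner-normalised natural-log median intensity among replicate spots of either probe orientation. The binding step lasted 1 h in 1× PBS with 1% milk, 0.2 mg/ml BSA, 0.5% salmon testes DNA and 0.03% Triton X-100, using GST-tagged P. falciparum DNA-binding domains expressed in E. coli on an Agilent 4 × 180k array of primer-extended double-stranded 36-bp intergenic genomic probes plus negative controls. Alexa488 anti-GST antibody and a 488 nm scan detected bound protein.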

Sequence	gcPBM binding intensity (ln)
ATTATATATAATATAGTGCATGTAAAAAATAAAACA	8.17
TATACACATATATACACACACATATATAAATAAATA [CACACA_site7579]	7.09
TGCACAAAGTTATGCACACACCTAAAATTAATTTTT [CACACA_site7385]	10.5
ATTCTTTATATGCATACACACCTAATATAGGGACCT [CACACA_site6830]	7.78
GTACATAGGTATAGCACACACAAATGTAGGTATTTT [CACACA_site4049]	6.53
TTATAATATGTATACACACACATATATAGATATATA [CACACA_site7159]	6.81
AAATGTAATATAAATAGTACATATTAAATAAAATTA [XGTACX_site6917]	5.99
ATGTGCACATATAAAAGTACACGCACATATATATAT [XGTACX_site1238]	11
TCTATTTTTTATATGGTGCATTGTTCTTATTAATAT [GTGCAC_site9392]	9.61
CTTTATTTTTTATACACACACAATATGTATTTATAT [CACACA_site5879]	7.34
AGGAAAAATAATTATTCACACAATAAATATATTTGA [CACACA_site5824]	6.34
AATTAATTTATGTTACGTACATAAGTATTATATTTT [XGTACX_site388]	6.42
GTTCAAATTATTATGTGTACTAAAGAATATTTTAAA [XGTACX_site3166]	6.43
AAATCGTGCACGGACACATGCAGTAGCCGAGAATTA [TGCATGCA_site733]	11.1
GATGTATTCATACATGCACACGTACATATTTAAATA [CACACA_site9299]	8.03
TAAACCAAAAAAAGTAGTACAAATATTATAAAAAAA [XGTACX_site8497]	6.38
TATTTTAATTTTTGTTGTACGCAAATGTGAGGGCAT [XGTACX_site4663]	6.73
AGGTAGAAAAAAGACACACACATTAGATATTTATAT [CACACA_site6313]	6.64
GTTCATAAATTAAACACACACACACGGCTGGATACC [CACACA_site7545]	6.72
GTAAAACAGATTTACAGTACACATGTGTTATGTTTT [XGTACX_site2933]	6.64
TTTATATATAAATAATGTACAAAAAATTTTAAAAAG [XGTACX_site7990]	7.03
ATAAAAATATTTGAATGTACTTATAAGATATATATA [XGTACX_site4257]	6.76
TTTTTATATTTTATTATTTTTTTTATATAAAAAATT [CACACA_negctrl_site601]	6.55

Sequence	gcPBM binding intensity (ln)
TATACGTATTACAGAGTGCAATAAACAGTATATATT	8.55
TGTATAAACTTTACGTGTACATGAATAATCTATAAT [XGTACX_site3801]	6.49
TAAATACATCTATGCACACAAAAAAATATATATTTT [CACACA_site5027]	9.24
TTTATAAATTCTCTTTTTAAAAAATATTTTTATACT [CACACA_negctrl_site427]	6.4
TAATCATTTTAGCTTACACACAAAATTTTGTTATAA [CACACA_site2939]	6.59
AAAATAATTTTATAAGTGCAAAATAGCTTATTTATA	8.95
TTGTACAAAAATAATGCACACTATATCAAGTTTTTT [CACACA_site5898]	10.3
AAAATGGAACTAGGAATAATATAAGAAGATAAAAGG [XGTACX_negctrl_site347]	6.82
TATATATGTGTATAGAGTACACGTTTTTTTTAATAT [XGTACX_site3128]	6.3
AAAAACCTGAACTGTGCATGTCATACTTTTACTTTT [TGCATGCA_site73]	7.02
TTAGGATTGAAGAGTTGTACATACCTCTTATTTGTT [XGTACX_site1376]	6.22
TATAAAATGTAATCTGAACACACATATTTTTTTAAT [CACACA_site8521]	6.16
ATCATATATTATTTATGTACTTATTTATAATAATAT [XGTACX_site8257]	6.47
TTAAAATTATAATACGTACACACCTTATCTTTTTGG [CACACA_site278]	6.64
ATATATAACGGGCACACACACATTTACGTATGAATA [CACACA_site1833]	6.97
GGCGTATGTGTATATACACACCCACGTATATATATA [CACACA_site9046]	8.02
TGTTGTTTTATGTTGTATTGTAATATATTATATTAT [XGTACX_negctrl_site46]	7.16
AAATATATTTCTTTTTTTCTTATTATTAATTTGCTT [CACACA_negctrl_site1483]	6.23
TATAGATTTATATACACATGCATTTTGGTAAAGAAA [TGCATGCA_site953]	6.59
TTTATTTATTATTATGTACACACTATATTAAAACAT [CACACA_site700]	6.62
TTATAATAAATATTCATATGTTCAAATATATATATA [CACACA_negctrl_site624]	8.42
ATTGTAAGTAGACACACACACATATAGATGTATATA [CACACA_site6463]	6.81
